# Some of the results follow.
# B1: Clec49 (Caenorhabditis elegans) (protein)
# chain: MTRLTLLLFGLLGAATAQTCNTGGIYNEQFNRCYQYFTAPAQFSFAEQQCNLLGGHLASVQNGQENALLQSNAANSFKRSNYSDYWIGATDLETSGTWKWTDPSVTFDYSNWQLGEPQSGSDCAIQDKGDGTWSAIGCTSYRPYVCVTPVIMTATCPPITTPIPTTCPTPAPCPIKQCVPSCDQGWTYFSPTDFCYRVYHGEKFNDAEASCVLLGGHLASIHSLTENTFVNNIASCGIKEGKYEHLAWIGMRKVGQDWVWTDGTPSDYFNWAPKQPDNPKKELCVQTAPDLSHDKWYENWNNLECNEVMRAYICKKASIHN
# How the values were obtained:
# Assay in all cases: glycan array binding signal (z-score within array); higher = stronger binding
# Conditions in all cases: glycan notation: IUPAC condensed, linker removed
# [1] = molecular target: Fuc(a1-3)[Gal3S(b1-4)]GlcNAc6S
# How it was run: (§1)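 The binding signal is a Z-score computed within each array and averaged over linkers. Arrays of the same protein sequence at different concentrations or buffers were also averaged together. Data originate from 3228 arrays in the Consortium for Functional Glycomics database, kept only where the protein sequence was available.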
# [2] = molecular target: Fuc(a1-3)[GalNAc(b1-4)]GlcNAc
# How it was run: as §1
# [3] = molecular target: Fuc(a1-3)[GalNAc(b1-4)]GlcNAc6S
# How it was run: as §1
# Fuc(a1-4)GlcNAc = molecular target: Fuc(a1-4)GlcNAc
# How it was run: as §1
# Fuc(b1-3)GlcNAc = molecular target: Fuc(b1-3)GlcNAc
# How it was run: as §1
# Gal(a1-2)Gal = molecular target: Gal(a1-2)Gal
# How it was run: as §1
# Gal(a1-3)Gal = molecular target: Gal(a1-3)Gal
# How it was run: as §1
# Gal(a1-3)Gal(b1-3)GlcNAc = molecular target: Gal(a1-3)Gal(b1-3)GlcNAc
# How it was run: as §1
# [4] = molecular target: Gal(a1-3)Gal(b1-3)GlcNAc(b1-2)Man
# How it was run: as §1
# [5] = molecular target: Gal(a1-3)Gal(b1-3)GlcNAc(b1-2)Man(a1-3)[Gal(a1-3)Gal(b1-3)GlcNAc(b1-2)Man(a1-6)]Man(b1-4)GlcNAc(b1-4)GlcNAc
# How it was run: as §1
# [6] = molecular target: Gal(a1-3)Gal(b1-3)GlcNAc(b1-3)GalNAc
# How it was run: as §1
# [7] = molecular target: Gal(a1-3)Gal(b1-3)GlcNAc(b1-6)GalNAc
# How it was run: as §1
# [8] = molecular target: Gal(a1-3)Gal(b1-3)[Fuc(a1-4)]GlcNAc(b1-2)Man(a1-3)[Gal(a1-3)Gal(b1-3)[Fuc(a1-4)]GlcNAc(b1-2)Man(a1-6)]Man(b1-4)GlcNAc(b1-4)GlcNAc
# How it was run: as §1
# Gal(a1-3)Gal(b1-4)Glc = molecular target: Gal(a1-3)Gal(b1-4)Glc
# How it was run: as §1
# Gal(a1-3)Gal(b1-4)GlcNAc = molecular target: Gal(a1-3)Gal(b1-4)GlcNAc
# How it was run: as §1
# [9] = molecular target: Gal(a1-3)Gal(b1-4)GlcNAc(b1-2)Man
# How it was run: as §1
# [10] = molecular target: Gal(a1-3)Gal(b1-4)GlcNAc(b1-2)Man(a1-3)[Gal(a1-3)Gal(b1-4)GlcNAc(b1-2)Man(a1-6)]Man(b1-4)GlcNAc(b1-4)GlcNAc
# How it was run: as §1
# [11] = molecular target: Gal(a1-3)Gal(b1-4)GlcNAc(b1-3)GalNAc
# How it was run: as §1
# [12] = molecular target: Gal(a1-3)Gal(b1-4)GlcNAc(b1-6)GalNAc
# How it was run: as §1
# [13] = molecular target: Gal(a1-3)Gal(b1-4)[Fuc(a1-3)]GlcNAc
# How it was run: as §1
# [14] = molecular target: Gal(a1-3)Gal(b1-4)[Fuc(a1-3)]GlcNAc(b1-2)Man(a1-3)[Gal(a1-3)Gal(b1-4)[Fuc(a1-3)]GlcNAc(b1-2)Man(a1-6)]Man(b1-4)GlcNAc(b1-4)GlcNAc
# How it was run: as §1
# Gal(a1-3)GalNAc = molecular target: Gal(a1-3)GalNAc
# How it was run: as §1
# [15] = molecular target: Gal(a1-3)[Gal(a1-4)]Gal(b1-4)GlcNAc
# How it was run: as §1
# [16] = molecular target: Gal(a1-4)Gal(b1-3)GlcNAc(b1-2)Man(a1-3)[Gal(a1-4)Gal(b1-3)GlcNAc(b1-2)Man(a1-6)]Man(b1-4)GlcNAc(b1-4)GlcNAc
# How it was run: as §1
# Gal(a1-4)Gal(b1-4)Glc = molecular target: Gal(a1-4)Gal(b1-4)Glc
# How it was run: as §1
# Gal(a1-4)Gal(b1-4)GlcNAc = molecular target: Gal(a1-4)Gal(b1-4)GlcNAc
# How it was run: as §1
# [17] = molecular target: Gal(a1-4)Gal(b1-4)GlcNAc(b1-2)Man(a1-3)[Gal(a1-4)Gal(b1-4)GlcNAc(b1-2)Man(a1-6)]Man(b1-4)GlcNAc(b1-4)GlcNAc
# How it was run: as §1
# [18] = molecular target: Gal(a1-4)Gal(b1-4)GlcNAc(b1-3)Gal(b1-4)Glc
# How it was run: as §1
# Gal(a1-4)GlcNAc = molecular target: Gal(a1-4)GlcNAc
# How it was run: as §1
# Gal(a1-6)Glc = molecular target: Gal(a1-6)Glc
# How it was run: as §1
# Gal(b1-2)Gal = molecular target: Gal(b1-2)Gal
# How it was run: as §1
# Gal(b1-3)Gal = molecular target: Gal(b1-3)Gal
# How it was run: as §1
# Gal(b1-3)Gal(b1-4)GlcNAc = molecular target: Gal(b1-3)Gal(b1-4)GlcNAc
# How it was run: as §1
# Gal(b1-3)GalNAc = molecular target: Gal(b1-3)GalNAc
# How it was run: as §1
# [19] = molecular target: Gal(b1-3)GalNAc(a1-3)[Fuc(a1-2)]Gal(b1-4)Glc
# How it was run: as §1
# [20] = molecular target: Gal(b1-3)GalNAc(a1-3)[Fuc(a1-2)]Gal(b1-4)GlcNAc
# How it was run: as §1
# Gal(b1-3)GalNAc(b1-3)Gal = molecular target: Gal(b1-3)GalNAc(b1-3)Gal
# How it was run: as §1
binder,measurement,setting,value
B1,glycan array binding signal (z-score),[1],0.018
same,glycan array binding signal (z-score),[2],-0.52
same,glycan array binding signal (z-score),[3],-0.666
same,glycan array binding signal (z-score),Fuc(a1-4)GlcNAc,-0.592
same,glycan array binding signal (z-score),Fuc(b1-3)GlcNAc,-0.132
same,glycan array binding signal (z-score),Gal(a1-2)Gal,0.347
same,glycan array binding signal (z-score),Gal(a1-3)Gal,0.464
same,glycan array binding signal (z-score),Gal(a1-3)Gal(b1-3)GlcNAc,-0.36
same,glycan array binding signal (z-score),[4],0.087
same,glycan array binding signal (z-score),[5],1.07
same,glycan array binding signal (z-score),[6],-0.009
same,glycan array binding signal (z-score),[7],-0.537
same,glycan array binding signal (z-score),[8],1.48
same,glycan array binding signal (z-score),Gal(a1-3)Gal(b1-4)Glc,0.288
same,glycan array binding signal (z-score),Gal(a1-3)Gal(b1-4)GlcNAc,-0.514
same,glycan array binding signal (z-score),[9],0.895
same,glycan array binding signal (z-score),[10],0.541
same,glycan array binding signal (z-score),[11],-0.407
same,glycan array binding signal (z-score),[12],-0.422
same,glycan array binding signal (z-score),[13],0.246
same,glycan array binding signal (z-score),[14],2.45
same,glycan array binding signal (z-score),Gal(a1-3)GalNAc,-0.457
same,glycan array binding signal (z-score),[15],-0.331
same,glycan array binding signal (z-score),[16],-0.77
same,glycan array binding signal (z-score),Gal(a1-4)Gal(b1-4)Glc,-0.394
same,glycan array binding signal (z-score),Gal(a1-4)Gal(b1-4)GlcNAc,-0.033
same,glycan array binding signal (z-score),[17],0.749
same,glycan array binding signal (z-score),[18],-0.229
same,glycan array binding signal (z-score),Gal(a1-4)GlcNAc,0.052
same,glycan array binding signal (z-score),Gal(a1-6)Glc,-0.221
same,glycan array binding signal (z-score),Gal(b1-2)Gal,0.354
same,glycan array binding signal (z-score),Gal(b1-3)Gal,0.777
same,glycan array binding signal (z-score),Gal(b1-3)Gal(b1-4)GlcNAc,0.247
same,glycan array binding signal (z-score),Gal(b1-3)GalNAc,0.198
same,glycan array binding signal (z-score),[19],-0.369
same,glycan array binding signal (z-score),[20],-0.934
same,glycan array binding signal (z-score),Gal(b1-3)GalNAc(b1-3)Gal,0.42
